We go through 101 compounds from article PMC6919601, “Identification of Plasmodium dipeptidyl aminopeptidase allosteric inhibitors by high throughput screening” (PLoS ONE, 2019).

Screen size: about 110,000 compounds; about 230 (0.21%) showed an effect of 50% or more. The list shows a part of the results.
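Note: 30 min substrate incubation versus DMSO and 10 µM JCP410 controls.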

The target of the test is DPAP1 (Plasmodium falciparum, UniProt Q8IIJ9). As to the kind of experiment: primary screen, percent inhibition; read by cleavage of a fluorogenic dipeptide substrate; higher = more effect of the substance. Also on record: species or system P. falciparum D10 trophozoite lysates; single well.
DPAP1, sequence (Q8IIJ9 whole entry, looked up): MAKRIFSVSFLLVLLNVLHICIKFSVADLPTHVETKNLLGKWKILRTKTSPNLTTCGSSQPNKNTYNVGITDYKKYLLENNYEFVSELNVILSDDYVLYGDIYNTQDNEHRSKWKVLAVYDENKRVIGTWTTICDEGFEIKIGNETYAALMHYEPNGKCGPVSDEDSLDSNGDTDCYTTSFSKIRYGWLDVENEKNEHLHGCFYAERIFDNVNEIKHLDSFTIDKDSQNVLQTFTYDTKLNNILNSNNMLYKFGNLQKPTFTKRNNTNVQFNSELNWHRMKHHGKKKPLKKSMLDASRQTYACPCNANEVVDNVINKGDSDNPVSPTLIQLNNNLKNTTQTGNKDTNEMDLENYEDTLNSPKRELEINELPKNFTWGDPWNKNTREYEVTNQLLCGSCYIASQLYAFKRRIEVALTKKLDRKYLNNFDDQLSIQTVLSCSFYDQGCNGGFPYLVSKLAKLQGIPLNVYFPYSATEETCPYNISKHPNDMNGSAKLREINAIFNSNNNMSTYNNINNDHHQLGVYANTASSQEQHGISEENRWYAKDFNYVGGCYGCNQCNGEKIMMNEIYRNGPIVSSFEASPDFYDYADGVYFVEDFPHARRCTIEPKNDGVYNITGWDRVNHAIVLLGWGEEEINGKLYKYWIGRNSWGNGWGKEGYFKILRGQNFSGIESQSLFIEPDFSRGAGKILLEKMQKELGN
`CCCCN(CC)C(=O)c1cnn(-c2ccccc2Cl)c1NC(C)=O`: the “% Inhibition @ 10 uM” value amounted to 0.583%.
Then `COc1cc(NC(=O)C(C)Oc2ccccc2)c(C(=O)O)cc1OC` (centres unmarked), with 1.72%.
For `O=C(O)c1ccccc1N1C(=O)C2C3C=CC(C3)C2C1=O` (centres unmarked), the “% Inhibition @ 10 uM” value is reported as 0.937%.
As for `CN1C(=O)/C(=C\c2ccccc2OCC#N)S/C1=N/c1ccccc1`, the “% Inhibition @ 10 uM” value is on record as -6.49%.
Then `N#Cc1nc(COc2cccc(Cl)c2)oc1N1CCN(c2ccccc2)CC1`, with 0.658%; and `COc1ccc2nc(NC(=O)Nc3cccc4ccccc34)sc2c1`, with -1.92%.
As for `Cc1ccc(-c2nc(NC(=O)C(C(C)C)N3C(=O)c4ccccc4C3=O)sc2C)cc1` (centres unmarked), the figure is -2.87%.
As to `O=C(/C(=C/c1c[nH]c2ccccc12)n1cncn1)c1ccc(Cl)cc1Cl`, the “% Inhibition @ 10 uM” value came out at 0.00706%.
Then `Cc1nn(C)cc1CNC(=O)NC1CCCCC1`, with -1.36%; and `COc1ccccc1OCCOc1c(OC)cc(/C=C2/C(=N)N3OC(C)=CC3=NC2=O)cc1OC`, with 2%.
Then `CN1CCN(Cc2ccc([N+](=O)[O-])cc2)CC1`, with 1.55%; and `CCOC(=O)C1=CN(C)C=C(C(=O)OCC)C1c1ccc(C(F)(F)F)cc1`, with 4.99%; and `Cc1ccc2c(c1)c1c(n2C)C(=O)CCC1`, with 1.7%.
`Cc1ccc(C)c(C2C(C#N)=C(N)Oc3c2oc(CO)cc3=O)c1` (centres unmarked): the “% Inhibition @ 10 uM” value is recorded as -2.77%.
Regarding `O=C(Nc1nc(-c2ccc(F)cc2)cs1)NC12CC3CC(CC(C3)C1)C2`, the “% Inhibition @ 10 uM” value is listed as -3.77%.
In the case of `Cc1nnc2c(N3CCN(C(=O)c4ccco4)CC3)nc3ccccc3n12`, the “% Inhibition @ 10 uM” value came to 1.23%.
On to `Cc1ccc(CC23CN4CCN(CC(C4)C2=O)C3)c(C)c1`, for which the “% Inhibition @ 10 uM” value is -1.82%.
With `Oc1nnnn1-c1ccc(Cl)cc1`, the “% Inhibition @ 10 uM” value is reported as -5.85%.
Then `C=CCNC(=O)CSc1nc(O)c2c(C)c(C)sc2n1`, with -1.08%; and `COc1cc(C(=O)Nc2nc3c(s2)CCc2ccccc2-3)cc(OC)c1OC`, with 0.997%.
As for `COc1ccc(-c2cc(C(F)(F)F)nc(SCC(=O)NCC3CCCO3)n2)cc1` (centres unmarked), the figure is -0.958%; as for `COc1ccc(C2C(=O)N(CCc3ccccc3)CC(=O)N2Cc2ccc(Cl)cc2)cc1` (centres unmarked), 4.17%; as for `CCOc1ccc(N2C(=O)CC(N3CC(C)OC(C)C3)C2=O)cc1` (centres unmarked), 5.39%.
As for `Cc1ccccc1C(=O)N1CCN(C(c2ccccc2)c2ccccc2)CC1`, the figure is 4.38%; as for `COc1cc2ncc(S(=O)(=O)c3ccccc3)c(N3CCC4(CC3)OCCO4)c2cc1OC`, -1.85%.
In the case of `Cc1nc(N2CCN(c3ccccn3)CC2)c2c(C)c(C(=O)Nc3ccc(Cl)cn3)sc2n1`, the “% Inhibition @ 10 uM” value is listed as -3.21%.
As for `Cc1cccn2c(=O)c3cc(C#N)c(=O)n(Cc4ccccc4Cl)c3nc12`, the figure is -5.92%.
Then `O=C(O)C1C2C=CC(O2)C1C(=O)Nc1cccc(Br)c1` (centres unmarked), with 2.36%.
Then `CC(=O)C(C)n1nnc2sc(-c3ccccc3)cc2c1=O` (centres unmarked), with 4%; and `CCOC(=O)N1CCN(CC(O)COCC2COc3ccccc3O2)CC1` (centres unmarked), with 9.33%; and `CC1CCCN(c2c(-c3ccccc3)c(=O)c2=O)C1` (centres unmarked), with 2.51%.
Consider `COc1ccc(OC)c(N(CC(=O)NC(C)(C)C)S(=O)(=O)c2ccc(C)cc2)c1`, for which the “% Inhibition @ 10 uM” value was -1.57%.
For `COc1ccc(-c2csc3ncn(Cc4ccc(C)cc4)c(=O)c23)cc1OC`, the “% Inhibition @ 10 uM” value is -3.92%.
For the compound `O=C(c1cccnc1S)n1ccnc1`, the “% Inhibition @ 10 uM” value is recorded as 2.05%.
With `COc1ccc(-c2noc(C(c3ccccc3)c3ccccc3)n2)cc1`, the “% Inhibition @ 10 uM” value is reported as 4.18%.
On to `CC(C)c1ccc2c(c1)[C@@H]1C=CC[C@@H]1[C@H](c1ccc(S(=O)(=O)N3CCOCC3)cc1)N2`, for which the “% Inhibition @ 10 uM” value was -0.865%.
`CCOC(=O)CC1(c2ccc(Cl)cc2)C(=O)c2ccccc2C1=O`: the “% Inhibition @ 10 uM” value is -9.97%.
For the compound `CCOc1ccc(/C=C/c2nc(C#N)c(NC)o2)cc1`, the “% Inhibition @ 10 uM” value is reported as -2.57%.
As for `CC1(C)Cc2nc3sc(C(=O)NCCO)c(N)c3cc2CO1`, the figure is 3.53%; as for `O=C(Nc1ccccc1-n1cccc1)C1CC1`, 1.07%; as for `Cc1cc(C)c(S(=O)(=O)Nc2ccc(Cl)cc2Cl)c(C)c1`, 3.47%.
Then `CCNC(=O)c1ccccc1-c1ccccc1C(=O)O`, with -8.03%; and `CCOc1ccc(N(CC(=O)Nc2ccc(F)cc2)S(C)(=O)=O)cc1`, with 17.9%.
Then `CCNC(=S)N(Cc1ccccc1)Cc1ccccc1Cl`, with -2.51%; and `O=C(CCN1C(=O)c2cccc3cccc(c23)C1=O)N1CCN(Cc2ccc3c(c2)OCO3)CC1`, with 0.121%; and `CCCCNc1ncnc2c1[nH]c1ccc(OC)cc12`, with -5.28%.
On to `O=C1OC(c2ccccc2)OC(=O)C1=Cc1ccc(OCc2cccc(C(=O)O)c2)cc1` (centres unmarked), for which the “% Inhibition @ 10 uM” value was -0.169%.
Regarding `CC(C)(C)c1cc(CN2CCN(c3ccc(Cl)cc3)CC2)cc(C(C)(C)C)c1O`, the “% Inhibition @ 10 uM” value is listed as -0.828%.
As to `CCOc1cc(C(c2c(O)n[nH]c2C)c2c(O)n[nH]c2C)cc(Cl)c1O`, the “% Inhibition @ 10 uM” value came to 0.561%.
As for `CN(CC(=O)NCc1ccco1)S(=O)(=O)c1ccc(-c2ccc(O)nn2)s1`, the figure is -3.84%; as for `O=C1NC(=O)/C(=C\c2ccc(-c3ccc(Br)cc3)o2)S1`, -2.19%; as for `Cc1ccc(-n2c(SCC(=O)NCCC3=CCCCC3)nc3nnc(C)c-3c2N)cc1Cl`, 1.2%.
For `NS(=O)(=O)c1ccc(NC(=O)c2ccco2)cc1`, the “% Inhibition @ 10 uM” value is recorded as -0.192%.
As for `Nc1nc2sc3c(c2cc1C(=O)N1CCOCC1)CCCC3`, the figure is 4.26%; as for `CN(C)C(=O)C(NC(=O)c1ccc([N+](=O)[O-])cc1)C12CC3CC(CC(C3)C1)C2` (centres unmarked), 0.937%.
Then `CCN1CCC(N2CCN(CC)CC2)CC1`, with 3.48%; and `CC1CCc2c(sc(NC(=O)CCC(=O)O)c2C(=O)Nc2ccc(Cl)cc2)C1` (centres unmarked), with 20.8%; and `Cc1ccc(SCC(=O)Nc2ccc(C(=O)NC(C)(C)C)cc2)cc1`, with 1.89%.
As for `Cc1nc2ccccc2cc1C(=O)Nc1cccc(C(F)(F)F)c1`, the figure is -1.61%; as for `OCCN(CCO)Cc1csc2ccccc12`, 0.843%; as for `O=S(=O)(NCc1csc(-c2ccccc2)n1)c1ccc(Oc2ccccc2)cc1`, -0.72%.
On to `Cc1cccc(OCc2nn3c(-c4ccccc4Br)nnc3s2)c1`, for which the “% Inhibition @ 10 uM” value is given as 2.89%.
On to `CCN(CC)c1ccc(C2SC(NC(C)=O)=NN2C(C)=O)cc1` (centres unmarked), for which the “% Inhibition @ 10 uM” value is listed as -3.63%.
As to `COc1cc(OC)c(CN2CCC(Cc3ccccc3)CC2)cc1Br`, the “% Inhibition @ 10 uM” value is recorded as 1.38%.
As for `O=C(CCCn1nc(-c2ccccc2)c2ccccc21)NCc1cccnc1`, the figure is -3.08%; as for `CC(=O)Nc1ccc(NC(=O)CSCc2ccccc2Cl)cc1`, 0.343%; as for `CC12CN(C(=O)Cc3ccccc3)CC(C)(CN(C(=O)Cc3ccccc3)C1)C2=O`, 3.94%.
Then `CC(=C(C#N)C#N)c1ccc2c(c1)OCO2`, with -3.98%; and `CC(C)(C)c1c(N2CCCCC2)c(=O)c1=O`, with -3.04%; and `O=C(O)C(Cc1ccc(Cl)cc1)NS(=O)(=O)c1ccccc1` (centres unmarked), with 12.3%.
`COc1ccc(Br)cc1C1=N/C(=C\c2cccc3ccccc23)C(=O)O1`: the “% Inhibition @ 10 uM” value is recorded as 12.7%.
Then `O=C(NC1CC1)c1nc(-c2ccc(C(F)(F)F)cc2)no1`, with 3.68%; and `Cc1ccc(-c2csc(/C(C#N)=C/c3ccc(Cl)cc3Cl)n2)c(C)c1`, with -3.26%.
Consider `CCOC(=O)C1=C(CSc2nc3ccccc3[nH]2)NC(=O)NC1c1cc(C)ccc1C` (centres unmarked), for which the “% Inhibition @ 10 uM” value was -4.49%.
As for `O=S(=O)(c1ccc(Cl)cc1)N1CCN(Cc2ccccn2)CC1`, the figure is -3.5%; as for `Cc1ccc2c(c1Br)C(O)(CC(=O)c1ccc3c(c1)OCO3)C(=O)N2` (centres unmarked), -0.519%; as for `CCCNC(=O)c1cc2oc3ccccc3c2n1C`, 6.06%.
Then `COc1ccc(C2=NN(CC(=O)NC3CC3)C(=O)CC2)cc1`, with 4.81%; and `CCc1cc(C(=O)COc2ccccc2)c(O)c(CN2CCCC2C(=O)O)c1O` (centres unmarked), with 3.06%.
As for `COc1ccc(Br)cc1CN1CCN(Cc2ccccc2)CC1`, the figure is 2.27%; as for `CCOc1ccc(NC(=O)COc2ccc3oc4c(c3c2)CCCC4)cc1`, 0.472%.
With `C=CCNc1nc(Cl)nc(NCC(=O)OCC)n1`, the “% Inhibition @ 10 uM” value is given as 3%.
Then `CCCOc1ccc(NC(=O)c2ccc([N+](=O)[O-])cc2)cc1`, with 0.00178%; and `NC(=S)CN1CCCC1=O`, with -1.26%; and `O=C(COc1ccc(Br)cc1)N1CCOCC1`, with 1.64%.
Then `CCCNC(=O)Cn1ncc2c3ccccc3n(C)c2c1=O`, with -9.31%.
Regarding `CCc1c(O)c(I)c(=O)n(-c2ccccc2)c1-c1ccccc1`, the “% Inhibition @ 10 uM” value is listed as 2.36%.
As for `CCN(CC)C(=O)NCc1noc2ccc(C)cc12`, the figure is 0.257%.
Consider `O=C(NCCc1ccccc1)c1ccc(Br)cc1`, for which the “% Inhibition @ 10 uM” value is -1.48%.
Then `COc1cc2c3c(c1)C(C)=CC(C)(C)N3C(=O)C2=O`, with -2.88%.
As for `CCOc1ccc(/C=C/c2nc(=O)c3ccccc3o2)cc1`, the figure is 8.18%; as for `NC(=O)c1c(NC(=O)Cc2ccc(F)cc2)sc2c1CCCC2`, 3.53%; as for `Cc1[nH]nc(O)c1C(c1cccc(OCc2ccccc2)c1)c1c(O)n[nH]c1C`, -1.06%.
In the case of `CCCCC(=O)c1c(C)cc(C)nc1S`, the “% Inhibition @ 10 uM” value came to 46.3%.
Then `CCCN1CCN(C(=O)Cn2ncc3c(C)n(Cc4ccccc4F)c(C)c3c2=O)CC1`, with -5.81%; and `O=S(=O)(c1ccc(Cl)cc1)N1CCC(N2CCCCC2)CC1`, with 3.77%.
As to `O=C(CN1C(=O)C(c2ccccc2)Oc2cccnc21)NCCCc1ccccc1` (centres unmarked), the “% Inhibition @ 10 uM” value is on record as -3.56%.
As for `COC(=O)c1ccc(-c2cc(C(=O)O)c3c(-c4ccc(Br)cc4)[nH]nc3n2)cc1`, the figure is 6.88%; as for `COc1ccc(NC2=NC(=O)/C(=C\c3ccc(OC)c(O)c3)S2)cc1`, 15.7%; as for `COc1ccc(Cl)cc1NC(=O)CN(Cc1ccccc1)S(=O)(=O)c1ccc(C)cc1`, 0.992%.
Then `Cn1cc(NC(=O)N2CCCCC2c2cccnc2)c2ccccc2c1=O` (centres unmarked), with -0.808%.
